According to PubChem BioAssay AID504832 (National Center for Advancing Translational Sciences (NCATS), 2011):
About 18,000 (5.8%) of roughly 310,000 compounds were called active. The shares of active, inactive and inconclusive entries below differ from those in the screen. Calls follow the shape of the dose curve; as a rule, active = well fitted inhibition curve with a large enough effect; inconclusive = small, poorly fitted or top-dose-only effect, or another doubt; inactive = no such curve, though single readings can be large or run the other way. Potencies of inconclusive entries are left out as doubtful fits.

Assay: Primary qHTS for delayed death inhibitors of the malarial parasite plastid, 48 hour incubation
Settings: P. falciparum luciferase growth in erythrocytes; series mostly up to 28.7 µM; activity change, negative = inhibition: at the top concentration
Summary of the method: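 Compounds are pin-transferred into medium, infected erythrocytes (2% hematocrit, 0.1% parasitemia final) are added, and plates sit one parasite generation at 37 C in 5% CO2. Detection reagent is then added and luminescence measured.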
% is scaled to controls: 0 for no effect and ±100 for the full control effect; potency is read from the fitted curve at half-maximal effect; tags tell the direction and shape of the fitted curve.

| SMILES | Potency | activity change, negative = inhibition |
| --- | --- | --- |
| O=C(c1ccc(Br)cc1)c1cc(-c2ccccn2)c(N2CCOCC2)s1 | inconclusive [inhibitor, single point] |  |
| O=C(CSc1nnc(COc2ccccc2)n1-c1ccccc1)c1cccs1 |  | inactive: -19.8% |
| CCc1cc(C(c2ccccn2)N2CCN(C)CC2)c(NC(=O)c2ccccc2)s1 (stereo unspecified) | inconclusive [inhibitor, single point] |  |
| COc1ccc(NC(=O)CN2CCC3(O)CCCCC3C2c2cc(OC)ccc2OC)cc1 (stereo unspecified) | inconclusive [inhibitor, partial curve] |  |
| COc1ccc(NC(=O)N2CCC(n3cnc4ccccc43)CC2)cc1 | inconclusive [inhibitor, partial curve, poor fit] |  |
| Cn1nnnc1SCc1csc(Nc2ccccc2)n1 |  | inactive: 42.2% |
| CCCCCCc1nc2ccccc2c(=O)n1NC(=O)c1c(O)c2c(n(CC(C)C)c1=O)CCCC2 |  | inactive: 9.08% |
| Cc1cc(Br)ccc1NC(=O)CN1C(=S)NC(C)(C)CC1C (stereo unspecified) | inconclusive [inhibitor, single point] |  |
| CCNc1nc(NC(C)C)nc(OCCOC(=O)Nc2ccccc2)n1 | inconclusive [inhibitor, single point] |  |
| Cc1ccccc1NC(=O)c1ccc2snnc2c1 |  | inactive: 30.8% |
| CC(=O)Nc1ccc(NC(=O)COc2ccc(Cl)cc2Cl)cc1 |  | inactive: -17.8% |
| CNC(=O)c1ccc(-c2sc3nc(N4CCOCC4)c4c(c3c2N)CC(C)(C)OC4)o1 | inconclusive [inhibitor, full curve] |  |
| O=C(Cn1nnc(-c2ccccc2Cl)n1)N1CCCCC1 |  | inactive: 107% |
| Fc1ccc(Nc2nnc(C(F)(F)F)s2)cc1Cl | inconclusive [inhibitor, single point] |  |
| CN(C)C(=O)/C=C\c1cn(-c2ccccc2)nc1-c1ccc2c(c1)OCCO2 | inconclusive [inhibitor, single point] |  |
| O=C(Nc1ccccn1)c1ccc(NC(=O)c2ccco2)cc1 |  | inactive: 204% |
| Cc1ccc(NC(=O)C2CCN(S(C)(=O)=O)CC2)c(C)c1 |  | inactive: -3% |
| CN(C)S(=O)(=O)c1cc(NC(=O)CSc2nn(-c3ccc(Cl)cc3)c(=S)s2)ccc1Cl | inconclusive [inhibitor, single point] |  |
| Cc1cccc(N2CCN(C(=O)c3ccccc3OCc3c(C)noc3C)CC2)c1C | inconclusive [inhibitor, single point] |  |
| O=c1[nH]c(CN2CCc3ccccc3C2)nc2ccccc12 |  | inactive: 22.3% |
| COCCCNc1nc2ccccc2nc1NS(=O)(=O)c1cccc(C)c1 | inconclusive [inhibitor, full curve, poor fit] |  |
| COc1cccc(OC)c1-c1nn(-c2ncc(C(F)(F)F)cc2Cl)c(=O)o1 |  | inactive: -0.725% |
| Cc1cc(NC(=O)c2cnn3c(C(F)(F)F)cc(-c4ccccc4)nc23)no1 | inconclusive [inhibitor, single point] |  |
| Cc1ccc(S(=O)(=O)N2CCN(Cc3cc4c(cc3Br)OCCO4)CC2)cc1 | inconclusive [inhibitor, single point] |  |

| SMILES | Potency | activity change, negative = inhibition |
| --- | --- | --- |
| Nn1c(Cc2ccccc2)nc2sc3c(c2c1=O)CCC3 |  | inactive: -5.83% |
| COC(=O)[C@@]1(Cc2ccc(OC)cc2)[C@@H]2C(=CC(=O)[C@H]2CC(=O)C(=O)N(C)C)CN1C(=O)c1ccccc1 | active: 14.7 µM |  |
| Cc1ccc(S(=O)(=O)N2CCN(C(=O)c3c(-c4ccccc4)noc3C)CC2)c(C)c1 |  | inactive: -2.93% |
| O=C1CSC2(C(=O)N3CCCc4cccc2c43)N1c1cccc(C(F)(F)F)c1 (stereo unspecified) | inconclusive [inhibitor, single point] |  |
| COc1c(C)oc2cc(O)ccc2c1=O |  | inactive: 9.08% |
| CCCC(=O)N(Cc1cc2cccc(C)c2[nH]c1=O)c1ccccc1OC | active: 11.7 µM |  |
| CCN(CC)CC(=O)Nc1c(C)cccc1C | inconclusive [inhibitor, full curve, poor fit] |  |
| OCCC1CN(Cc2cnc(N3CCOCC3)s2)CCN1C1CCCC1 (stereo unspecified) |  | inactive: -10% |
| O=C(Cn1cnc2ccccc21)c1ccc(Br)cc1 | inconclusive [inhibitor, partial curve, poor fit] |  |
| Cc1cc(=O)[nH]c(SCc2csc(-c3ccccc3)n2)n1 |  | inactive: 10.3% |
| N#CCCCSC1=C(C#N)C(c2ccccc2Cl)CC(=O)N1 (stereo unspecified) | inconclusive [inhibitor, single point] |  |
| COc1cc(O)c(C(CCN2CCCCC2)c2ccc(N(C)C)cc2)c(OC)c1 (stereo unspecified) | active: 1.31 µM |  |
| CCOc1cc(CNn2cnnc2)cc(Br)c1OCC(=O)NC1CCCCC1 | inconclusive [inhibitor, partial curve, poor fit] |  |
| c1ccc(-c2ccccc2OCc2nnc3n2CCC3)cc1 |  | inactive: 37.2% |
| C=C(Cl)COc1cc(C)cc2oc(=O)cc(CC)c12 | inconclusive [inhibitor, single point] |  |
| O=C(CCn1c(=S)oc2ccccc21)N1CCCCC1 | inconclusive [inhibitor, full curve, poor fit] |  |
| NC(=O)C1CCN(c2nc(-c3cccc(N)c3)cs2)CC1 | inconclusive [activator, partial curve] |  |
| COc1ccc(C(=O)COC(=O)c2ccc(NC(=O)c3ccccc3)cc2)cc1 |  | inactive: 20.6% |
| Cc1ccc(S(=O)(=O)N2CCC(C(=O)Nc3ccccc3N3CCCC3)CC2)cc1C | inconclusive [inhibitor, single point] |  |
| CCCCC(=O)N1C/C=C\C(c2ccc(OC)cc2)N(Cc2ccc(F)cc2)C(=O)[C@H]1Cc1ccccc1 (stereo partly specified) | active: 11.7 µM |  |
| COc1ccc(/C=N/OCc2nc3c4c(ncn3n2)Oc2ccc3ccccc3c2C4c2ccccc2)cc1 (stereo unspecified) | inconclusive [inhibitor, full curve, poor fit] |  |
| COc1ccc(S(=O)(=O)N2CCOC2CNC(=O)C(=O)NCCc2ccc(OC)c(OC)c2)cc1C (stereo unspecified) |  | inactive: -25.4% |
| COc1ccc(C(=O)Cc2cc(OC)c(OC)cc2C(=O)c2ccccc2F)cc1OC | inconclusive [inhibitor, single point] |  |
| CC(C)Sc1nnc(NC(=O)C2CC2)s1 |  | inactive: 47.4% |

| SMILES | Potency | activity change, negative = inhibition |
| --- | --- | --- |
| Cc1nc2ccccc2nc1CN1CCC(CO)(CC2CCCCO2)CC1 (stereo unspecified) | inconclusive [inhibitor, partial curve, poor fit] |  |
| Cc1ccccc1Cn1cc(NC(=O)c2cc3nc(-c4ccco4)cc(C(F)(F)F)n3n2)cn1 | inconclusive [inhibitor, single point] |  |
| COc1ccccc1OCCC(=O)Nc1cccc(S(=O)(=O)N2CCCCC2)c1 |  | inactive: -3.78% |
| COC(=O)Nc1nn(-c2ccc(Cl)cc2)c(=O)c(C#N)c1C | inconclusive [inhibitor, partial curve, poor fit] |  |
| CCCN(CC(=O)Nc1ccccc1OC)C(=O)c1cccc(S(=O)(=O)Nc2ccc(OC)cc2)c1 | inconclusive [inhibitor, partial curve] |  |
| CCNC(=O)Nc1ccc(-n2nc(C)c(C(=O)OCC)c2C)nc1 | inconclusive [inhibitor, single point] |  |
| CCOc1c2ccc(C(=O)NCc3ccc(C)cc3)cc2nn1CCOC |  | inactive: 10.1% |
| Cc1ccc(S(=O)(=O)N2CCCC2C(=O)NCc2ccccc2F)cc1 (stereo unspecified) | inconclusive [inhibitor, full curve, poor fit] |  |
| CCn1c(SCC(=O)N/N=C/C=C\c2ccccc2[N+](=O)[O-])nc2ccccc21 | inconclusive [inhibitor, single point] |  |
| COc1ccc(C(=O)CNc2ccc3ccccc3c2)cc1 |  | inactive: -3.71% |
| Cc1ccc(-c2cc([C@H]3[C@H]4C=CC[C@@H](C)[C@@H]4C(=O)N3Cc3ccccc3)ccc2F)cc1 | active: 10.4 µM |  |
| CN1CCN(C(=O)c2cc3c(=O)n4ccccc4nc3s2)CC1 |  | inactive: 38.3% |
| Cc1nn(-c2ccccc2)c(Cl)c1/C=C1/C(=N)N2N=C(C(C)C)SC2=NC1=O | inconclusive [inhibitor, partial curve, poor fit] |  |
| O=c1c2cc(Cl)ccc2nc(-c2ccc(Cl)c(Cl)c2)n1O | inconclusive [inhibitor, single point] |  |
| COc1ccc(-c2c(-c3cc(OC)cc(OC)c3)n(C)c3ccc(-c4cccc5[nH]ccc45)cc23)cc1 | inconclusive [inhibitor, partial curve] |  |
| Cc1nc2nc(NC(=O)c3ccco3)[nH]n2c(=O)c1C |  | inactive: 17.3% |
| Cc1ccc(Cn2c(=N)c(C(=O)NCC3CCCO3)cc3c(=O)n4cccc(C)c4nc32)cc1 (stereo unspecified) | inconclusive [inhibitor, partial curve] |  |
| CCC(C)NC(=O)c1cc(Cl)c(NC(=O)C2=C(C)OCCS2)cc1OC (stereo unspecified) | inconclusive [inhibitor, partial curve] |  |
| COc1cccc(/C=N/NC(=O)c2ccccc2N(Cc2ccccc2)S(=O)(=O)c2ccccc2)c1OC | inconclusive [inhibitor, partial curve, poor fit] |  |
| Cc1ccc(Cn2nnnc2CN2CCC(n3nnc4cc(C)ccc43)CC2)cc1 | inconclusive [inhibitor, full curve] |  |
| Cc1ccc(S(=O)(=O)c2nc(NCCCn3ccnc3)sc2Cl)cc1 | inconclusive [inhibitor, partial curve, poor fit] |  |
| CC(C)(C)c1ccc(C(=O)CCC(=O)OCC(=O)NCCc2ccc(S(N)(=O)=O)cc2)cc1 |  | inactive: -24.7% |
| O=C(CN(Cc1ccccc1)S(=O)(=O)c1ccc(F)cc1)NCc1cccnc1 | inconclusive [inhibitor, single point] |  |
